Article PMC6323126
Where a chain is given by its changes, count along the chain named. Results are given in words; binding and its absence hold for the method and conditions named. For some of these results: Binding seen in cells or lysates may run through a third protein. Some results given as binding are weak or reduced against the parent protein; the word gives no strength. For some of these results: Tags and fused reporters may be left off the sequences shown.

The chains behind the UniProt entries cited, without tags or fusion partners.
UniProt Q5VSL9: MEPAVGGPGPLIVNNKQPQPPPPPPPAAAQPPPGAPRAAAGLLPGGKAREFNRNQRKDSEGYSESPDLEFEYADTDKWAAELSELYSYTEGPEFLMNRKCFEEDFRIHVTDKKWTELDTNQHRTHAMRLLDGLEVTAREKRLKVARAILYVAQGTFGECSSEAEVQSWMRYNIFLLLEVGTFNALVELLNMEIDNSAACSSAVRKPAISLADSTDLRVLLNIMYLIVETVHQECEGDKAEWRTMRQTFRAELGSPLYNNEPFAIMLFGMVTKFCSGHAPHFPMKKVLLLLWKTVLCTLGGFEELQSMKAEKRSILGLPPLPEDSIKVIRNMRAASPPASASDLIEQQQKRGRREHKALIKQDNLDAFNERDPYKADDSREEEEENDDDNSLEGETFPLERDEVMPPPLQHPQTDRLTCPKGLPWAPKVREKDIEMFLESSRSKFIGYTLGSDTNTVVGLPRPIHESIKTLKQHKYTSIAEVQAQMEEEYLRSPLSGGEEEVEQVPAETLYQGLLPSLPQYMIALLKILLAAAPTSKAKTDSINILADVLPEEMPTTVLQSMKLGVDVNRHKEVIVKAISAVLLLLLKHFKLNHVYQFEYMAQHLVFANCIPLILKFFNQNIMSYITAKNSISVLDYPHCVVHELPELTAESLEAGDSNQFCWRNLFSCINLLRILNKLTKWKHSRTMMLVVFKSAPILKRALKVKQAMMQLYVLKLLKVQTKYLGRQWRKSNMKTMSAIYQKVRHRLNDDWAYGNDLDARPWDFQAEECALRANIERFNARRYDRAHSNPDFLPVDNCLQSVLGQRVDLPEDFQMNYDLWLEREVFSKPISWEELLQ
UniProt Q9P289: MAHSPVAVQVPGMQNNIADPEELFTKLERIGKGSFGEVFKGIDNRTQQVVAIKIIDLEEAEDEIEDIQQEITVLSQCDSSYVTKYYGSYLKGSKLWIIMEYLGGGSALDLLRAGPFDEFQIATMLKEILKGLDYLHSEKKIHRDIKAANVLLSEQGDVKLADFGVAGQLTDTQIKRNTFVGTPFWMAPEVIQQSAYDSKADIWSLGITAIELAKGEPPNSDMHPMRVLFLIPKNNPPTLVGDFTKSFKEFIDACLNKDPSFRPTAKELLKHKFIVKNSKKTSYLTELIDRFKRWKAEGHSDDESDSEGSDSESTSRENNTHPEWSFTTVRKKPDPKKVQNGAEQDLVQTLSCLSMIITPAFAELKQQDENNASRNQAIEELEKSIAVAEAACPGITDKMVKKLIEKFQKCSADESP
UniProt O95747: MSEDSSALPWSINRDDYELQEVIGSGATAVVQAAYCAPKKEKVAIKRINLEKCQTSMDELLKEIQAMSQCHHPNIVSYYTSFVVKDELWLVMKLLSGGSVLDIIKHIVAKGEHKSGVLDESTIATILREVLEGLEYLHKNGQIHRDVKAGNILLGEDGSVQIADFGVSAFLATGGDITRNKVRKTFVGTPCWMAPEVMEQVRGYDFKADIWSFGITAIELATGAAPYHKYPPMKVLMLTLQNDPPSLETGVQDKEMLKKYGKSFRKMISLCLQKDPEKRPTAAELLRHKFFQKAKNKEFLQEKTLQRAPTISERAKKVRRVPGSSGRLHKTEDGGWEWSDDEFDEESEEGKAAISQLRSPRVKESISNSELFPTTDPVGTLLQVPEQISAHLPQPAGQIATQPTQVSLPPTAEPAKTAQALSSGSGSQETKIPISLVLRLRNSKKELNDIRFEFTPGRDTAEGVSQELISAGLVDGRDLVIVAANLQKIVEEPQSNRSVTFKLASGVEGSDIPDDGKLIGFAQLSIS

What was measured:
[1] = biological target: T1, MST2 (recombinant, wildtype) (human) (UniProt Q13188); test: pull-down; GST pulldown: GST-tagged protein, partner and glutathione Sepharose mixed at 4 °C for 1 h in 20 mM HEPES (pH 7.5), 100 mM NaCl; eluted with 20 mM reduced glutathione; SDS-PAGE, Coomassie staining; both purified
T1 sequence: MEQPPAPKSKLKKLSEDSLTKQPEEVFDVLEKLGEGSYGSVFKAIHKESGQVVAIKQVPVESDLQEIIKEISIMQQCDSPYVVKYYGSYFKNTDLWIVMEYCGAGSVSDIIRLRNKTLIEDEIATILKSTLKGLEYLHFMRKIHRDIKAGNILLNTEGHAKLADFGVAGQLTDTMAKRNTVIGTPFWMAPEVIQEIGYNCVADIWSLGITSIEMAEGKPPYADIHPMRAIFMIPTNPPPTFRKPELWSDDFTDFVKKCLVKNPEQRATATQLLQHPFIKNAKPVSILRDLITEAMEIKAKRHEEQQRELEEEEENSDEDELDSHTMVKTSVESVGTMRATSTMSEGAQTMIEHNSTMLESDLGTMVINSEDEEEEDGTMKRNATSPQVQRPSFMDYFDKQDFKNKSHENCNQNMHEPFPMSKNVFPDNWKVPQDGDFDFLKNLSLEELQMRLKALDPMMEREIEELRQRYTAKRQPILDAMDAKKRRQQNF

[2] = biological target: T2, SIKE1 (recombinant, limits not stated) (human) (UniProt Q9BRV8); test: pull-down; pulldown with purified recombinant proteins shown in supplementary figures; whether GST or MBP and who carried the tag not told; both purified
T2 sequence: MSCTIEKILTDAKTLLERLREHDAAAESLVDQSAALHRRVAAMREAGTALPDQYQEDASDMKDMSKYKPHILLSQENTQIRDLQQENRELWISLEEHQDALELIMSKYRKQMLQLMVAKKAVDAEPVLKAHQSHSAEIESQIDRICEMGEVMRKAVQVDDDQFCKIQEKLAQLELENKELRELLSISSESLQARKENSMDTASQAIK

[3] = biological target: STRIP1 (full-length, His-tagged, insect cells) (UniProt Q5VSL9); test: as above
[4] = biological target: T3, STRN3 peptide (residues 166–190) (human) (UniProt Q13033); test: as above
T3 sequence (peptide): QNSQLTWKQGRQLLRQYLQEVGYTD

[5] = biological target: T4, MBP-tagged STRN3 fragment (residues 64–341) (human) (UniProt Q13033); test: pull-down; MBP pulldown: MBP-tagged protein, partner and amylose resin mixed at 4 °C for 1 h in 20 mM HEPES (pH 7.5), 100 mM NaCl; eluted with 20 mM maltose; SDS-PAGE, Coomassie staining; both purified
T4 sequence: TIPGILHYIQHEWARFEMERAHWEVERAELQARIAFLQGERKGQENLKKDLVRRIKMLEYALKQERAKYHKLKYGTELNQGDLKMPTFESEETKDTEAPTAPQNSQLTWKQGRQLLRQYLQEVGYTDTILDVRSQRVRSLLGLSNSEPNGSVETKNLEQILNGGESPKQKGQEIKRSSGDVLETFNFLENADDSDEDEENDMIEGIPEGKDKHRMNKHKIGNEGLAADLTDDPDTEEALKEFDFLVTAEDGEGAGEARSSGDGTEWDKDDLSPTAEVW

[6] = biological target: T5, STRN3 (residues 64–190) (human) (UniProt Q13033); test: as above
T5 sequence: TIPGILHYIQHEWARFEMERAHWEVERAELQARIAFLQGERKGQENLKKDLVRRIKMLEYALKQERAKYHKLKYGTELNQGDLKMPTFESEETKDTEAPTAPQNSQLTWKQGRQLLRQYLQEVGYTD

[7] = biological target: T6, MST2 (recombinant, wildtype) (human), Q13188; test: as above; conditions: remark: other sources report otherwise
T6 chain: T1 sequence

[8] = biological target: T7, MST1 (endogenous) (human (endogenous in HEK293FT)) (UniProt Q13043); test: co-IP; endogenous proteins, HEK293FT cells at high (80%) and low (10%) cell density; immunoprecipitation of STRN3 or MST1; immunoblot
T7 sequence: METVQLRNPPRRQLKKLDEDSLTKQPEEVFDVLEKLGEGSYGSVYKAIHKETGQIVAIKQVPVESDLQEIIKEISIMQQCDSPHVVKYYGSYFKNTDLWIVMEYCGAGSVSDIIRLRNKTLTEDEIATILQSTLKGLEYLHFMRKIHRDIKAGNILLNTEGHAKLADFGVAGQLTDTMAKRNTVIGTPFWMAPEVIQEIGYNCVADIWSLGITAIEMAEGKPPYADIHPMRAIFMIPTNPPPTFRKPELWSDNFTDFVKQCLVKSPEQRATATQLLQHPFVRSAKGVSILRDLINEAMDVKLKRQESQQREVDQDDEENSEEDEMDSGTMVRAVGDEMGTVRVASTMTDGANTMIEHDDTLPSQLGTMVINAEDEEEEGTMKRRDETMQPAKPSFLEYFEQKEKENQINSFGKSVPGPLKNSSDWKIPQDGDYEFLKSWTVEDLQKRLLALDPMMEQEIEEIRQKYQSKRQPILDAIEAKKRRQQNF

[9] = biological target: T8, STRN3 (endogenous) (human (endogenous in HEK293FT)) (UniProt Q13033); test: as above
T8 sequence: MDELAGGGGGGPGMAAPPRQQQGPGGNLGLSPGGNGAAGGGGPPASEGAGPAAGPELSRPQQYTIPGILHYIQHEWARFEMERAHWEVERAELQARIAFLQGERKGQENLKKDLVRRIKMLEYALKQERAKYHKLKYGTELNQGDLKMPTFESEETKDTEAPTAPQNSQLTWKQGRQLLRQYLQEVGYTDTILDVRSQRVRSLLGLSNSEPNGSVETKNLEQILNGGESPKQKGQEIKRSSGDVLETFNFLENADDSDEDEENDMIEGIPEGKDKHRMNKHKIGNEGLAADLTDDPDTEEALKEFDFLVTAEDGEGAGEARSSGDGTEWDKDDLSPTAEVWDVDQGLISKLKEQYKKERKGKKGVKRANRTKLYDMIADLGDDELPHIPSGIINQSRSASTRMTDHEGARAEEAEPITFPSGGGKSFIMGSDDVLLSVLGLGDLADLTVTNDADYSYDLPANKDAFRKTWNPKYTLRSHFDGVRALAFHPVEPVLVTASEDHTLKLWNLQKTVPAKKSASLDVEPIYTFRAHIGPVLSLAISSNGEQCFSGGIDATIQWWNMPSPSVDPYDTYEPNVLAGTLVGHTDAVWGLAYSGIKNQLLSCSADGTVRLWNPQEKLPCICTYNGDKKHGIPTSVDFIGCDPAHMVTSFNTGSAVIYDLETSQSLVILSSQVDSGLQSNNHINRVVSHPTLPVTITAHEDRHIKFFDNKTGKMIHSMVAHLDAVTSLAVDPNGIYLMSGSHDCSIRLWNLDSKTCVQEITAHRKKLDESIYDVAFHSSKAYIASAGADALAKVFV

[10] = biological target: T1, MST2 (recombinant, wildtype) (human); test: pull-down; pulldown with the kinase (MST2 or MST4) first dephosphorylated with lambda-phosphatase (λPPase); both purified
[11] = biological target: MST4 (recombinant) (human) (UniProt Q9P289); test: as above
[12] = biological target: T9, MST2 K56R (recombinant) (human) (UniProt Q13188); test: pull-down; pulldown with purified recombinant proteins shown in supplementary figures; whether GST or MBP and who carried the tag not told; both purified
T9 sequence: T1 sequence with K56R

[13] = biological target: OSR1 (recombinant) (human) (UniProt O95747); test: as above

B1: STRN3 (residues 221–341) (domain or fragment, UniProt Q13033 221-341)
chain: EQILNGGESPKQKGQEIKRSSGDVLETFNFLENADDSDEDEENDMIEGIPEGKDKHRMNKHKIGNEGLAADLTDDPDTEEALKEFDFLVTAEDGEGAGEARSSGDGTEWDKDDLSPTAEVW
binding [1]: no binding

B2: TRAF3IP3 coiled-coil region (residues 188–513) (domain or fragment, UniProt Q9Y228 188-513)
chain: AVLDKEIIQLSDYLKEALQRELVLKQKMVILQDLLSTLIQASDSSWKGQLNEDKLKGKLRSLENQLYTCTQKYSPWGMKKVLLEMEDQKNSYEQKAKESLQKVLEEKMNAEQQLQSTQRSLALAEQKCEEWRSQYEALKEDWRTLGTQHRELESQLHVLQSKLQGADSRDLQMNQALRFLENEHQQLQAKIECLQGDRDLCSLDTQDLQDQLKRSEAEKLTLVTRVQQLQGLLQNQSLQLQEQEKLLTKKDQALPVWSPKSFPNEVEPEGTGKEKDWDLRDQLQKKTLQLQAKEKECRELHSELDNLSDEYLSCLRKLQHCREELN
binding [2]: binds
binding [3]: no binding

B3: SIKE1 (recombinant, limits not stated) (protein, UniProt Q9BRV8 1-207)
chain: T2 sequence
binding [4]: binds
binding [5]: binds
binding [6]: binds

B4: SIKE1 (recombinant, limits not stated), Q9BRV8 1-207 (protein)
chain: T2 sequence
binding [7]: no binding

B5: SIKE1 (endogenous) (protein, UniProt Q9BRV8 1-207)
chain: T2 sequence
binding [8]: binds
binding [9]: binds

B6: SLMAP coiled-coil regions (CC1-2, residues 161–565) (domain or fragment, UniProt Q14BN4 161-565)
chain: YSQELFQLSQYLQEALHREQMLEQKLATLQRLLAITQEASDTSWQALIDEDRLLSRLEVMGNQLQACSKNQTEDSLRKELIALQEDKHNYETTAKESLRRVLQEKIEVVRKLSEVERSLSNTEDECTHLKEMNERTQEELRELANKYNGAVNEIKDLSDKLKVAEGKQEEIQQKGQAEKKELQHKIDEMEEKEQELQAKIEALQADNDFTNERLTALQVRLEHLQEKTLKECSSLEHLLSKSGGDCTFIHQFIECQKKLIVEGHLTKAVEETKLSKENQTRAKESDFSDTLSPSKEKSSDDTTDAQMDEQDLNEPLAKVSLLKDDLQGAQSEIEAKQEIQHLRKELIEAQELARTSKQKCFELQALLEEERKAYRNQVEESTKQIQVLQAQLQRLHIDTENLREE
binding [2]: binds
binding [3]: no binding

B7: FHA domain (residues 5–135) of SLMAP (domain or fragment, UniProt Q14BN4 5-135)
chain: LAIFTCRPNSHPFQERHVYLDEPIKIGRSVARCRPAQNNATFDCKVLSRNHALVWFDHKTGKFYLQDTKSSNGTFINSQRLSRGSEESPPCEILSGDIIQFGVDVTENTRKVTHGCIVSTIKLFLPDGMEA
binding [10]: no binding (condition: MST2 treated with λPPase)
binding [11]: no binding (condition: MST4 treated with λPPase)
binding [12]: no binding
binding [13]: no binding

B8: STRN3 (residues 146–220) (domain or fragment, UniProt Q13033 146-220)
chain: LKMPTFESEETKDTEAPTAPQNSQLTWKQGRQLLRQYLQEVGYTDTILDVRSQRVRSLLGLSNSEPNGSVETKNL
binding [1]: no binding
